# Assay results: the supplement of paper PMC3334620
# Over roughly 33,000 sequences, “E-score (-0.5 to 0.5)” has its median near -0.035; the highest 2% begin near 0.35. The list shows a part of the results.
# Target: T1, Pdr3 (UniProt P33200)
# T1 sequence: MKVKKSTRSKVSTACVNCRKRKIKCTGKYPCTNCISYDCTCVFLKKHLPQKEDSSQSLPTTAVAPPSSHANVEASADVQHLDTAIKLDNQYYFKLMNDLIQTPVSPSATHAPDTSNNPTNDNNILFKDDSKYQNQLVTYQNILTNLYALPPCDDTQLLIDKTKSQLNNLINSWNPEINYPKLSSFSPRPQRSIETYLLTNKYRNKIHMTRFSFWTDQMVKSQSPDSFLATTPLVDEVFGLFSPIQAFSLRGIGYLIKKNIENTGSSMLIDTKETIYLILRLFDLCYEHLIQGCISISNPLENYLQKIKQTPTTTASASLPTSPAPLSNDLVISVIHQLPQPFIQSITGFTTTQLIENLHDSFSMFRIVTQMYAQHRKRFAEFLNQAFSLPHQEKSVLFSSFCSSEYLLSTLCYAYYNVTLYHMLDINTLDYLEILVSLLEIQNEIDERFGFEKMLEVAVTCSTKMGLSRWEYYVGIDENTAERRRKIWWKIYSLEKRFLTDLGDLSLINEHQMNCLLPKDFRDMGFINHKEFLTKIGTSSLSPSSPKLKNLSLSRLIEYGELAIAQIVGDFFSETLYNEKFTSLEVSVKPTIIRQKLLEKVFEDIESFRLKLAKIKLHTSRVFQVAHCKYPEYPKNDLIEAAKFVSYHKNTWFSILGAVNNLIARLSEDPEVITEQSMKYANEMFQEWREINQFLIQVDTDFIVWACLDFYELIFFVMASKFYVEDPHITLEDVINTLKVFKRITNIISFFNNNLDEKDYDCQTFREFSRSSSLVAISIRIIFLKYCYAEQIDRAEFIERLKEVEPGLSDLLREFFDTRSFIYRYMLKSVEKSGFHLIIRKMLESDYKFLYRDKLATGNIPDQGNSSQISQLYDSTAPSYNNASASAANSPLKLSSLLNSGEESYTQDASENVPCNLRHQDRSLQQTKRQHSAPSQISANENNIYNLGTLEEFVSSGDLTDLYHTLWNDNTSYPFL
# Experiment: PBM E-score (8-mer binding enrichment) (E-score (-0.5 to 0.5)); higher = stronger / more preferred TF binding; most listed sequences are background and not binding sites
# Settings: protein concentration: 200 nM; construct: GST-full length
# Summary of the method: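 The E-score, a modified Wilcoxon-Mann-Whitney statistic, was computed by the Universal PBM Analysis Suite for every ungapped eight-base word pooled with its reverse complement. Scans behind it were normalised with masliner after bound GST-tagged yeast transcription factors were detected with fluorescent anti-GST. The proteins, at about 100-200 nM, had been applied to universal all-10-mer Agilent arrays made double-stranded by primer extension.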
row,Sequence,PBM E-score
1,GATTTCTA,0.176
2,GCTAACCC,-0.0511
3,CCCAGCAA,0.0104
4,CGAGAGGA,-0.0206
5,ATAGCTAG,-0.171
6,GTCAAGGA,-0.0724
7,CAACGCTA,-0.113
8,CTTTGGGC,0.126
9,CGCAACCA,0.169
10,ACGAATGG,0.128
11,AATGCGCT,-0.0583
12,GTCGATAA,-0.0109
13,AGATGGAC,0.0691
14,AAAGAAGT,-0.0364
15,ACTGAGCA,-0.0639
16,CAACTTGA,0.0601
17,ATGGGGGA,-0.172
18,GACTCATC,-0.241
19,CAGGTGCC,-0.0993
20,ACGCACGG,0.271
21,ATTCGGTA,0.0682
22,AAACCTAA,-0.0251
23,GAAGAACA,0.194
24,ACAGGAAG,0.0468
25,AACGAATT,-0.00992

row,Sequence,PBM E-score
1,GAAGATTA,0.03
2,TCATCACA,-0.206
3,ACACAGCT,-0.195
4,TAGGTGCA,-0.151
5,CCAACAAA,-0.0869
6,AAATGTGC,0.202
7,TGCGACCA,0.174
8,GGCTCCGA,0.227
9,CAGGGAAC,-0.133
10,AAGAACCA,-0.0468
11,AATACGCT,-0.082
12,AATTCAGT,-0.113
13,AGCCAAAG,-0.254
14,CGTGCAGA,-0.148
15,CCGTGTGA,0.137
16,TCTCGGAA,0.444
17,AATTAAGG,-0.221
18,CATTCGAG,-0.0138
19,ACTAATAT,0.038
20,AACGCAAC,0.167
21,ATCGGTCG,0.139
22,GGTCTACA,-0.0795
23,AAAGCTCG,0.0308
24,GTAAATGA,0.0457
25,ATTCGGAC,0.275

row,Sequence,PBM E-score
1,GGCACCAA,0.172
2,GATGTAGA,-0.0944
3,CATATGGC,-0.0414
4,ACATGAAA,-0.147
5,CAGATGGC,-0.0668
6,GGTCACTA,-0.00881
7,GTTGGTGA,0.0595
8,ATTTGAGG,-0.0861
9,AATTACAT,0.089
10,CGGGACAA,0.213
11,TAATGATA,0.132
12,GGTGCCAC,-0.0915
13,AAAATGAT,0.12
14,CTTTCCCA,0.0901
15,ACGCTCTA,-0.232
16,CGCTGCGA,0.0964
17,AGCGTAAC,-0.0998
18,GACGAGTC,-0.163
19,CCGTTACG,0.203
20,AAAGTTGG,-0.0864
21,AATCTGCT,-0.15
22,AGGTTGCC,0.101
23,AGGCACCT,-0.17
24,CCTGGCCC,0.0706
25,CTCAATCA,0.0455

row,Sequence,PBM E-score
1,CTAAGTAA,-0.0721
2,ACGTAACG,-0.111
3,AGCGCAAG,-0.195
4,CTCCGTCA,0.128
5,AGTGGGTC,-0.0565
6,AATACGAA,0.019
7,CATTTAGC,-0.17
8,GTAGAAGA,-0.194
9,CCGCCCTA,-0.0244
10,GAAGAGAC,0.086
11,AACAGCTA,-0.0934
12,CACAACCC,-0.00342
13,AGCGTGCG,0.127
14,CCATATAA,-0.00525
15,ACGCCGAT,-0.0606
16,AGCCAACT,-0.185
17,GAGCGTAA,-0.0778
18,GGAAGACC,0.202
19,AACTGATT,-0.0719
20,CACATAAG,-0.259
21,GCAAAGGC,-0.14
22,CACCGGGA,0.272
23,AGTATACT,-0.282
24,ATTAGAAA,-0.0537
25,AGTTTGGA,-0.0252

row,Sequence,PBM E-score
1,AAAATATA,-0.0002
2,ATGCAAGG,-0.194
3,CCCTTTGA,-0.217
4,GCCGCACA,0.0419
5,ATATAACC,-0.102
6,AAACCTAG,-0.115
7,GCAGCCCA,-0.0597
8,TAGGGACA,0.0407
9,GGAAGAAA,0.0649
10,AAGAAGGG,-0.217
11,GCCAGGAC,-0.139
12,CTGTGGCC,-0.0745
13,AGCTGTTC,0.0741
14,AAACAGGT,-0.185
15,CAATTAAG,-0.0734
16,GACCGTGA,0.0874
17,AAAGCAAA,0.0583
18,CACCCATC,-0.175
19,CTATAAAG,-0.0652
20,GATTTGCC,0.0658
21,TCAACTCA,-0.096
22,GAGCCAAA,-0.0464
23,AATCAGGT,0.0601
24,AATCTCCC,-0.0436
25,AAGTTCAA,0.146

row,Sequence,PBM E-score
1,AGCTACCA,-0.0482
2,CGCGTGCA,-0.167
3,CGAATCAA,0.0151
4,CTCAGTCC,-0.06
5,CAACCATA,-0.0696
6,ATGCATAG,-0.236
7,CGCTAAGA,0.0694
8,GCGTAAGC,-0.21
9,CCGTGTAG,0.0242
10,CAGCTATA,0.016
11,CCAGCAGC,-0.066
12,AGGGTCAA,-0.0253
13,GGTAATAC,0.18
14,ATAAGTTA,-0.086
15,AGCCCTTA,-0.202
16,GTCGTAAC,-0.0674
17,ACCGATAA,0.0979
18,GAAGCGCA,0.24
19,GCCTCTAC,-0.346
20,ATACTAAG,-0.0603
21,CCTTGCCA,-0.0808
22,GAATTCCC,-0.0143
23,CCGAGAAA,0.357
24,ATGCTGCC,-0.0294
25,ACTAGCAG,-0.191

row,Sequence,PBM E-score
1,CTGTAGTC,-0.179
2,AGCTCTAC,-0.108
3,CACGTCGG,0.142
4,CAATCGGA,0.332
5,CCTGTACG,-0.19
6,AGTGTCGG,0.177
7,ATAAAAGC,0.0167
8,AGTGGTTC,0.00772
9,TTACCAAA,-0.105
10,GATGAGGC,-0.0831
11,ACGTCAGT,-0.112
12,GACGTATA,-0.17
13,CACGCCAA,-0.0967
14,CGCGGTTA,0.188
15,ACGTTTTG,-0.288
16,GGCGAGCA,0.0206
17,GTCTAAAA,-0.204
18,CCGGTGAG,0.154
19,GGATTGCA,0.185
20,AAAGGTGA,-0.148
21,GGGAGATA,0.0536
22,CCGATCGC,0.00975
